Assay results published in PMC11683816 (Journal of thrombosis and haemostasis : JTH, 2019).

Columns and labels:
Test in all cases: SPR
[1] = biological target: Wild-type GPIbα (amino acids H1-E285) (UniProt P07359 17-301)
[2] = biological target: GPIbα G233V (amino acids H1-E285) (UniProt P07359 17-301, G233V)
[3] = biological target: GPIbα M239V (amino acids H1-E285) (UniProt P07359 17-301, M239V)
[4] = biological target: GPIbα G233V/M239V double mutant (amino acids H1-E285) (UniProt P07359 17-301, G233V | M239V)

Measured: binding result

B1: A1 domain of von Willebrand factor ([…]) (domain or fragment)
chain: not shown
binds: all assays above
